48 compounds from PubChem BioAssay AID1508642 (National Center for Advancing Translational Sciences (NCATS), 2021) can be followed below.

The structures appear in SMILES notation. About 200 (0.47%) of roughly 43,000 compounds were called active. About 12% were inconclusive and are not listed. Calls come from the whole dose curve; as a rule, active = well fitted cell-killing curve with a large enough effect; inconclusive = small, poorly fitted or top-dose-only effect, or effect the other way; inactive = flat fitted curve, though single readings scatter. The list shows a part of the results.
% is set by controls: 0 for no effect and ±100 for the full control effect.

The experiment is described as follows: Cell viability qHTS assay in S16 Pmp22-F2sN cells. Note: nearly all actives have a fitted effect of over 65% in size. Conditions: S16 Pmp22-F2sN Schwann cells (luciferase reporters placed in the Pmp22 gene) viability, CellTiter-Glo, 24 h; series mostly up to 57.5 µM; activity change, negative = cytotoxicity: at the top concentration. In outline:
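CellTiter-Glo counter-screen, qHTS, 1536-well. Cells: S16(c9) Pmp22-F2sN, 500-1,000/well in DMEM + 10% FBS. Cpd 23 nL pin transfer, 24 h, 37C/5% CO2. Read: luminescence, CCD imager.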
As for `CCc1nc(SCc2cc(=O)c3cc(C)ccc3[nH]2)n[nH]1`, the “activity change, negative = cytotoxicity” value was inactive: 0.242%.

Regarding `CCn1c(/C(C#N)=C/c2ccccc2Cl)nc2ccccc21`, the “activity change, negative = cytotoxicity” value is inactive: -25%. For `CCc1cccc(NC(=O)CSc2nc3ccsc3c(=O)n2CC)c1`, the “activity change, negative = cytotoxicity” value was inactive: 1.28%. For the compound `CCc1cc2c(-c3ccccc3)cc(=O)oc2c2c1OCN(Cc1ccc(F)cc1)C2`, the “activity change, negative = cytotoxicity” value was inactive: 3.21%.

As for `COc1cc(OC)c(NC(=O)Nc2c(C)n(C)n(-c3ccccc3)c2=O)cc1Cl`, the “activity change, negative = cytotoxicity” value is inactive: -2.42%.

Take `Cc1cc(C)c2sc(NC(=O)c3ccc(S(=O)(=O)N4CCOCC4)cc3)nc2c1`: the “activity change, negative = cytotoxicity” value was inactive: 10.8%. To `Cn1c(=O)n(C)c2cc(N3CCOCC3)c(NC(=O)c3c(F)cccc3F)cc21` belongs inactive: -0.361%; to `CCC(Oc1ccccc1)C(=O)Nc1ccc(OCc2cc(=O)n3ccccc3n2)cc1` (stereo not drawn), inactive: 3.2%. Turning to `COC(=O)c1ccccc1NC(=O)c1ccc2c(=O)n3c(nc2c1)CCCCC3`, the “activity change, negative = cytotoxicity” value was inactive: 1.18%.

With `CCOc1ccc(CNC(=O)C2Cc3ccccc3N2C(=O)CC)cc1` (stereo not drawn), the “activity change, negative = cytotoxicity” value was inactive: 6.66%. For `Cc1ccc(S(=O)(=O)n2nc(-c3ccco3)nc2NCc2ccccc2Cl)cc1`, the “activity change, negative = cytotoxicity” value is inactive: 0.297%. Turning to `Cc1cccc(Cn2cnc3c(cnn3-c3ccc(Cl)cc3)c2=O)c1`, the “activity change, negative = cytotoxicity” value was inactive: 6.33%.

With `Cc1cc(C)c2oc(C(=O)Nc3ccc(S(=O)(=O)N4CCC(C)CC4)cc3)cc(=O)c2c1`, the “activity change, negative = cytotoxicity” value is inactive: -1.35%. With `Cc1ccc(CN2CCN(C3CCN(C(=O)Nc4ccccc4C(F)(F)F)CC3)C(=O)C2=O)cc1`, the “activity change, negative = cytotoxicity” value was inactive: 4.65%. The same measure for `Cc1cc(C)n2c(Nc3ccccc3)c(-c3ccccc3)nc2n1`: inactive: -13.1%. To `Cc1ccc(CNC(=O)CCCn2c(=O)c3ccccc3n(Cc3ccccc3C)c2=O)cc1` belongs inactive: 11.3%. Take `CC(NC(=O)c1ccc2c(c1)N(Cc1ccc(Cl)cc1)C(=O)c1ccccc1S2=O)c1ccccc1` (stereo not drawn): the “activity change, negative = cytotoxicity” value is inactive: -4.91%. For `CC(C)NC(=O)C1CCCN(c2ncnc3c2nc2n3CCCCC2)C1` (stereo not drawn), the “activity change, negative = cytotoxicity” value is inactive: 4.45%. The same measure for `Cc1cccc(Cn2nnc(C(=O)Nc3cc(C)ccc3C)c2N)c1`: inactive: -8.36%; for `Cc1cccc(C)c1NC(=O)CCCN1C(=O)CCn2nc(-c3cn(C)c4ccccc34)cc21`: inactive: -11.3%. Take `COc1ccc(C(=O)NCCn2cc(SCc3cc(C)ccc3C)c3ccccc32)cc1`: the “activity change, negative = cytotoxicity” value is inactive: -10.3%.

For the compound `COc1ccccc1NC(=O)c1ccc2oc(=O)c(S(=O)(=O)c3ccccc3)cc2c1`, the “activity change, negative = cytotoxicity” value was inactive: 6.88%. The same measure for `CC(CNS(=O)(=O)c1ccc2c(c1)CC(=O)N2C)c1ccccc1` (stereo not drawn): inactive: 18.2%. With `Cc1ccc(C(C)C)c(OCCCn2c(=O)oc3ccccc32)c1`, the “activity change, negative = cytotoxicity” value was inactive: -1.42%.

Take `CCOC(=O)c1c(C)oc2nc(C)nc(NCCCN3CCN(c4ccc(F)cc4)CC3)c12`: the “activity change, negative = cytotoxicity” value is inactive: 4.38%. To `CCOc1ccc(C2c3c(oc4ccccc4c3=O)C(=O)N2c2nnc(C)s2)cc1OC` (stereo not drawn) belongs inactive: -8.07%; to `Cc1cc(N2CCN(c3cccc(C)c3C)CC2)n2nc(C)c(-c3ccc(Cl)cc3)c2n1`, inactive: 1.59%; to `Cn1nnc2c(NCc3ccccc3)ncnc21`, inactive: 1.12%. For `Cc1cc(C)cc(-n2c(C)nc3cc(C(=O)NCc4ccc(F)cc4)ccc32)c1`, the “activity change, negative = cytotoxicity” value was inactive: -1.8%. To `CC(C)Cn1c(=O)c2ccccc2n2c(CCC(=O)NCc3ccc(Cl)cc3)nnc12` belongs inactive: -4.19%; to `CCN(CCCNC(=O)c1cc2cc3ccc(OC)cc3nc2s1)c1cccc(C)c1`, inactive: -16.9%; to `CCCN1C(=O)c2[nH]nc(-c3cccc(OC)c3)c2C1c1ccccn1` (stereo not drawn), inactive: 1.63%. To `CCCCn1c(=N)c(C(=O)NC2CCCCC2)cc2c(=O)n3cccc(C)c3nc21` belongs inactive: 24.9%; to `Cn1c(=O)oc2cc(S(=O)(=O)NCCC(=O)NCc3ccc(F)cc3)ccc21`, inactive: -3.15%. With `CCC(C)NC(=O)c1ccc2c(c1)N(Cc1ccccc1F)C(=O)c1ccccc1S2=O` (stereo not drawn), the “activity change, negative = cytotoxicity” value is inactive: 8.58%. The same measure for `O=C(CCC(=O)N1CCSc2ccccc21)NCc1ccccc1Cl`: inactive: -6.4%. Regarding `CCOc1ccc(CCNC(=O)c2cn(-c3cccc(OC)c3)c(=O)c3ccccc23)cc1`, the “activity change, negative = cytotoxicity” value was inactive: 8.4%.

On to `CCc1nc2ccc(C(=O)NCc3ccc(SC)cc3)cc2nc1CC`, for which the “activity change, negative = cytotoxicity” value is inactive: 2.06%. For `OCCN1CCN(C(c2ccc(Cl)cc2Cl)c2sc3nc(-c4ccco4)nn3c2O)CC1` (stereo not drawn), the “activity change, negative = cytotoxicity” value is inactive: -0.986%.

As to `CCOc1ccc(-n2c(SCC(=O)Nc3ccc4c(c3)OCCO4)nc3c([nH]c4ccccc43)c2=O)cc1`, the “activity change, negative = cytotoxicity” value was inactive: 6.32%. As to `Clc1ccccc1-c1nnc(-c2ccccc2CNc2ccc(Br)cc2)o1`, the “activity change, negative = cytotoxicity” value was inactive: -1.79%. To `CCOc1ccccc1CNC(=O)c1cnc2sc(N3CCOCC3)nn2c1=O` belongs inactive: 10.1%; to `CCN(C(=O)Cn1c(=O)nc(-c2ccccc2)c2cc(Cl)ccc21)c1cccc(C)c1`, inactive: 10.3%; to `CCOc1ccc(CCNC(=O)Cn2ncc3c([nH]c4ccccc43)c2=O)cc1OCC`, inactive: 4.47%. Regarding `Cc1ccc(Cl)cc1N1CCN(C(=O)c2ccc3c(c2)N(Cc2ccccc2F)C(=O)c2ccccc2S3=O)CC1` (stereo not drawn), the “activity change, negative = cytotoxicity” value is inactive: 30.9%.

`O=C(CCS(=O)(=O)c1cc(Br)cc2c1N(C(=O)C1CC1)CC2)Nc1ccc(F)cc1`: the “activity change, negative = cytotoxicity” value was inactive: 0.846%. The same measure for `Cc1ccc(CNC(=O)c2sc3nc(-c4ccccc4)cn3c2C)cc1`: inactive: -6.67%; for `CC(C)c1ccc2c(c1)NC(c1ccncc1)=NC(c1cccs1)=N2`: inactive: 2.33%.
